Test results as given in the supplement of paper PMC3334620.
The full ranking holds about 33,000 sequences; the median of “E-score (-0.5 to 0.5)” is about -0.021, and the highest 2% start at about 0.32. Some of the results follow.

Target: T1, Zap1 (UniProt P47043)
T1 sequence: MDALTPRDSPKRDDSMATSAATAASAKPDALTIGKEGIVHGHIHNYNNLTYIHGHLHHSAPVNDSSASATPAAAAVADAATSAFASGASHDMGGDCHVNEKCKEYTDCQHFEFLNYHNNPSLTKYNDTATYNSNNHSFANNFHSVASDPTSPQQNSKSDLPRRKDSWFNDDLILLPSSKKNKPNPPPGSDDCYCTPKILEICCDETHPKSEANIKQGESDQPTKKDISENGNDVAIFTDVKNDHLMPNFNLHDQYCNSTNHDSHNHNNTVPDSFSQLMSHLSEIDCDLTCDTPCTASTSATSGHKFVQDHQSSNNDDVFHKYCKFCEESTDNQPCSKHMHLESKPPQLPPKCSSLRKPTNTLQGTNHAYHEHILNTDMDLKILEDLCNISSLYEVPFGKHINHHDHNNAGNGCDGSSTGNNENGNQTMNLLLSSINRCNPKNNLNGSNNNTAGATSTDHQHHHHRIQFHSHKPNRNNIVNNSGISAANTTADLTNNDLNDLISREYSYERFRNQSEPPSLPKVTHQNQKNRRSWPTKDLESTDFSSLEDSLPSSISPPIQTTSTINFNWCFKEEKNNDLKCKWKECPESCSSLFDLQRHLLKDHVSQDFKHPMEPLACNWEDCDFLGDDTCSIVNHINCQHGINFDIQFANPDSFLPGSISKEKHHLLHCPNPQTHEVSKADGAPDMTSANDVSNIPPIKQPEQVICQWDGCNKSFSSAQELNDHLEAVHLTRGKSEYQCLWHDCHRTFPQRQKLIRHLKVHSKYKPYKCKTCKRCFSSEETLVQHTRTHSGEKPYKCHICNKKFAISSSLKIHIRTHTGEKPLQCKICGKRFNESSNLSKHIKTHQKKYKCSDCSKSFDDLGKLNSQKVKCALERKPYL
Assay: PBM E-score (8-mer binding enrichment) (E-score (-0.5 to 0.5)); higher = stronger / more preferred TF binding; most listed sequences are background and not binding sites
Conditions: protein concentration: 200 nM; construct: GST-full length
Experimental: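 Universal 'all 10-mer' protein binding microarrays (Agilent AMADID 015681) probed with GST-tagged S. cerevisiae TFs (full-length or DBD) made by in vitro transcription/translation (PURExpress), about 100-200 nM. Bound TF was detected with fluorescent anti-GST. Each ungapped 8-mer (which stands for itself and its reverse complement) is scored by the PBM enrichment score (E-score), a modified Wilcoxon-Mann-Whitney statistic from -0.5 to +0.5, computed with the Universal PBM Analysis Suite. Scale: above 0.35 generally sequence-specific binding.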

Row | Sequence | PBM E-score
1 | AATGATAA | 0.2
2 | AATTCCAC | 0.171
3 | ATGGGGCG | -0.129
4 | TCTGGCCA | -0.0183
5 | ATCGACGC | -0.0892
6 | AGAACTGA | 0.0589
7 | CCTTAGCA | 0.162
8 | GCGATACC | 0.158
9 | GGCCAGAC | -0.0773
10 | GCGGTTGA | 0.149
11 | GGATTAAA | 0.135
12 | ATTTAGTA | 0.167
13 | AAACGTAT | -0.00708
14 | GCGCAAAA | 0.0381
15 | AAATGTGG | -0.0928
16 | ACTGGCAA | 0.0202
17 | ACCGTAAA | 0.293
18 | AAGTTCAT | 0.0784
19 | CACGTTGC | -0.298
20 | AGGGAGTA | -0.0625
21 | GGACCCCC | -0.177
22 | GAGCGCGC | -0.0746

Row | Sequence | PBM E-score
23 | AGGTCGAC | 0.135
24 | AGGCGGCC | 0.0585
25 | AGACCACC | 0.0702
26 | ACTTGCAC | -0.141
27 | AGCGCGGA | -0.00104
28 | CTTTGCCC | -0.0577
29 | ACGCACTA | -0.161
30 | AGACCCCC | -0.233
31 | ATCTATTA | 0.0199
32 | CCCCTGAA | 0.127
33 | ATGTATGG | -0.0638
34 | CATCCAAG | -0.073
35 | GCTAGTTA | -0.0737
36 | AAGGGTAG | 0.375
37 | AGCACGAT | -0.00084
38 | CCTTCAAG | 0.292
39 | CAACTCAC | -0.00774
40 | GCAGAATA | 0.122
41 | ACGAGCCC | -0.0869
42 | ATACCGAA | 0.0855
43 | AGGATATG | 0.0277
44 | ATTCTATG | 0.0807

Row | Sequence | PBM E-score
45 | TGAACAAA | 0.161
46 | CAGTCTGG | -0.16
47 | ATACGGGC | -0.134
48 | ATGTTCAA | -0.0107
49 | CGTGGTTA | 0.348
50 | CGAAAGCC | -0.12
51 | CCGCCTTA | -0.127
52 | CCGCACGG | -0.114
53 | ACAATGCA | 0.0982
54 | CAGGTTGG | 0.0671
55 | AGTACTAA | 0.134
56 | AAGTTCCT | 0.0163
57 | AGTCCGTC | -0.034
58 | AAGACACG | -0.18
59 | AGATTCCA | 0.0253
60 | ACGATGCA | 0.026
61 | ATAGTAGA | 0.118
62 | ACTGTTGA | -0.123
63 | AGTATCTG | -0.114
64 | TATATGAA | 0.181
65 | GAGGTATA | 0.233
66 | AAGCCGAC | -0.159

Row | Sequence | PBM E-score
67 | AGGCCCAC | -0.14
68 | AACTTGGA | 0.0986
69 | CCACCTCC | -0.104
70 | ACTTCCGA | 0.0305
71 | GAATACGC | -0.176
72 | ACCGTCAA | 0.121
73 | CGTTCAGC | -0.0955
74 | AACCGCGA | 0.367
75 | AGGGCGAC | -0.0254
76 | GGGATGAC | 0.0333
77 | GAACATAA | 0.185
78 | CGTCATAG | 0.082
79 | TCACCGCA | 0.0198
80 | CCAGCTGG | -0.125
81 | ATGGCCGA | 0.123
82 | GGCGGCAA | -0.00175
83 | GCCTAAAC | -0.0306
84 | CGGCCTGC | -0.215
85 | TCGGGTAA | 0.24
86 | AGCGCGTG | 0.0374
